Assay results published in PubChem BioAssay (NCATS).
Inconclusive results are not listed. The call rests on the fitted dose curve; in most records, active means well fitted inhibition curve with a large enough effect; inconclusive means small, poorly fitted or top-dose-only effect; inactive means flat fitted curve, though single readings scatter. Some entries of the source have several records that differ or are many. The list is limited to them. An entry can have further records. Results that share an entry are repeats in other runs, samples, wells, individuals or studies.

Experiments:
[1] = qHTS assay for small molecule antagonists of peroxisome proliferator-activated receptor delta signaling (AID 588535); conditions: HEK293T PPARd-UAS-bla, beta-lactamase FRET ratio, 18 h; 460 nm channel;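 further: cells co-treated with a PPAR-delta agonist as stimulator during compound exposure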
Procedure, shortened: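 Antagonist-mode qHTS using GeneBLAzer PPAR-delta-UAS-bla HEK293T cells; compound exposure 18 hrs at 37 C over a titration. Ratiometric CCF4 fluorescence at 460/530 nm; concentration-response points fitted to the Hill equation.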

[2] = system: HaCat; assay: Cytotoxic Profiling of Annotated Libraries Using Quantitative High-Throughput Screening (AID 1296008); conditions: Five cell lines viability, CellTiter-Glo ATP luminescence, 48-72 h, stronger effect = lower value; further: on the % scale 0 is the no-effect control and ±100 the full control effect; nearly all actives have a fitted effect of over 60% in size
Procedure, shortened: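 Cytotoxicity was measured as CellTiter-Glo ATP luminescence, read after 10 min at room temperature. Compound treatment of the cells lasted 48 or 72 hr at 37 degrees Celsius in a qHTS format.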

With `CC1(C)C(C=C(Cl)Cl)C1C(=O)OCc1cccc(Oc2ccccc2)c1` (configuration not stated) as the compound, how does the max response [1] read?
The max response was -4.95, 25.4, 37.3, 25% [separate samples].

For `Cc1c(-c2ccnn2C)cc(C(=O)NCc2ccc(S(C)(=O)=O)cn2)c(=O)n1-c1cccc(C(F)(F)F)c1`, which max response [2] is on record?
The max response was “inactive: -24.5, -1.68, -4.8, 3.37% [separate samples]”.
